Test results reported in PubChem BioAssay AID1768 (National Center for Advancing Translational Sciences (NCATS), 2009).
Several values for one entry are separate records, joined by “and”; a condition that tells them apart may be missing. Equal entries are not always repeated. Among all 270,000 compounds or so, about 620 (0.23%) were called active. Inconclusive results, whose numbers are uncertain, are shown with a selection of clear calls. Calls follow the shape of the dose curve; as a rule, active = well fitted inhibition curve with a large enough effect in the polarisation, with a control signal flat (not every such curve was filed as active); inconclusive = small, poorly fitted or top-dose-only effect, or effect the other way, or a change in a side signal; inactive = no such curve, though single readings can be large or run the other way; the % refers to the polarisation. Potencies beside an inconclusive call are fits to weak or partial responses and may not hold up. “Side channel” marks fits to a control or component signal instead of the main read-out.

target: Menin (Homo sapiens) (UniProt O00255); assay: qHTS Assay for Inhibitors Targeting the Menin-MLL Interaction in MLL Related Leukemias: Competition With Texas Red Labeled MLL-derived Mutant Peptide; conditions: fluorescence polarization; FP activity change, negative = inhibition: at 61.6 µM (top of the series); as to FP activity change, negative = inhibition: % of control where 0% means no effect
UniProt O00255, sequence (O00255 whole entry, looked up, the tested form may be a part): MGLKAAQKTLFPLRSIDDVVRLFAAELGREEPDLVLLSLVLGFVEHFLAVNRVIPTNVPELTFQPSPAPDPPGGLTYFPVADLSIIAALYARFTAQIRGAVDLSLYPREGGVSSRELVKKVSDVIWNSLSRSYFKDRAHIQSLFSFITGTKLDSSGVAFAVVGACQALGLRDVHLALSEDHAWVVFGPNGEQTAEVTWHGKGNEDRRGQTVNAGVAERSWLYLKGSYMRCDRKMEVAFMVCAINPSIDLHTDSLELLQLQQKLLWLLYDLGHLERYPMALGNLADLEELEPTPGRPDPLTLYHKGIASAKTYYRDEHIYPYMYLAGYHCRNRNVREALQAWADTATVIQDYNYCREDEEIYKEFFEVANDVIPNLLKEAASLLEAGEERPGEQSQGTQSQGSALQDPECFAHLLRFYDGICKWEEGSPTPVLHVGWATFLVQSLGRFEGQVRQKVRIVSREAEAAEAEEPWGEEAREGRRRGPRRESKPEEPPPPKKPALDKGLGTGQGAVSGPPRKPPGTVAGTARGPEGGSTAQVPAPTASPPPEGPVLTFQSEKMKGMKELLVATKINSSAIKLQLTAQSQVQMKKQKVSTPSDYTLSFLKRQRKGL
Excerpt: qHTS Assay for Inhibitors Targeting the Menin-MLL Interaction in MLL Related Leukemias NIH Chemical Genomics Center [NCGC] NIH Molecular Libraries Probe Centers Network [MLPCN] MLPCN Grant: MH084875-01A1 Assay Submitter (PI): Jolanta Grembecka, Tomasz Cierpicki, University of Virginia Translocations of the MLL (Mixed Lineage Leukemia) gene are frequently found in human leukemias affecting both children and adults. Fusion of MLL to one of more than 60 genes results in generation of oncogenic proteins upregulating Hox genes, which are vital to blood cell development. Patients harboring fusion of the MLL gene suffer from aggressive leukemias and respond poorly to available therapies. All of the oncogenic fusion proteins have a preserved N-terminal fragment of MLL that has been identified to interact with menin. It has been recently discovered that association with menin is critical to the leukemogenic activity of the MLL fusion oncoproteins. Selective targeting of the menin-MLL interaction could provide an attractive therapeutic approach to develop novel drugs for MLL-related leukemias. Small molecules blocking the menin-MLL interaction should reverse the oncogenic potential of MLL fusion proteins. We have developed and optimized a fluorescence polarization-based assay for the identification of Menin-MLL inhibitors. The assay was run employing two different MLL-derived peptides. The present assay uses a 12 amino acid peptide labeled with fluorescein at its N-terminus. This peptide consists of the menin high affinity binding motif from MLL and is potently bound by menin. Another peptide with a mutated sequence, labeled with Texas Red, was used in parallel as a less stringent screen for inhibitors.
The Menin protein, the MLL-wild type (w.t.) derived peptide (N-terminal 12 amino acids), the MLL-derived peptide labeled with Texas Red and the MLL-w.t. peptide labeled with Fluorescein were kindly supplied by laboratory of Dr. Jolanta Grembecka, University of Virginia. All protein and peptide solutions were stored in single use aliquots at -80C. The Eu3+ Cyrptate-conjugated mouse monoclonal antibody anti-6 Histidine (Eu3+-AB) and the Streptavidin-XL665 conjugate (XL665) were purchased from Cisbio International (Bedford, MA). All antibody and XL665 conjugate solution stocks were stored in single use aliquots at -20C. The Buffer components for all assays were purchased from Sigma-Aldrich (St. Louis, MO) and Invitrogen (Carlsbad, CA). FP Assay Reagents: 1. FP reaction buffer: 50 mM Tris-HCl pH 7.5, 50 mM NaCl, 1mM DTT. Before use, 0.05% BSA is added. 2. Menin protein, MLL-w.t. labeled with fluorescein, MLL-mutant peptide labeled with texas red. Stored in singe use aliquots at -80C. 3. MLL-w.t. unlabeled peptide as positive control: 10 uM final in FP buffer. FP Assay Procedure: 1. Prepare Menin at 200 nM, MLL-w.t.-fluorescein at 25 nM, and MLL-mutant-texas red at 50 nM mixture in FP buffer. 2. Prepare Menin at 200 nM, MLL-w.t.-fluorescein at 25 nM, MLL-mutant-texas red at 50 nM, and 10 uM MLL-w.t. unlabeled mixture in FP buffer. 3. Prepare MLL-w.t.-fluorescein at 25 nM and MLL-mutant-texas red at 50 nM mixture in FP buffer. 3. Dispense 4 ul per well of reagent in step 1 in columns 2, 4 - 48 in a black 1536 well plate, dispense 4 ul per well of reagents from steps 2 and 3 in columns 1 and 3 respectively. Incubate plate at ambient for 15 minutes. 4. Transfer 23 nl per well of compound to plate and incubate at ambient for 1 hr. 5. Read fluorescence polarization for each label using the PerkinElmer Envision. Envision protocol for fluorescein: FITC FP Dual Enh Mirror, Excitation filter 480, Emission filter (1) P-pol 535, Emission filter (2) S-pol 535 Envision protocol for texas red: FP Dual Enh Mirror, Excitation filter 555, Emission filter (1) P-pol 632, Emission filter (2) S-pol 632
Potency is read from the fitted curve at half-maximal effect; tags tell the direction and shape of the fitted curve or compound fluorescence and quenching.

FP activity change, negative = inhibition, inactive:
O=C(N/N=C\c1c(O)ccc2ccccc12)c1ccc(Cn2cccn2)o1 -14.8%
CCOc1ccc(NC(=O)NCc2ccccn2)cc1 -14.6%
Cc1ccc2[nH]c3nc(SCCN4CCOCC4)nnc3c2c1 6.91%
CCOC(=O)N1CC=C2C(C#N)=C(N)C(C#N)(C#N)[C@H](c3cccs3)[C@H]2C1 1.03%
COc1cc(CNCCc2c[nH]c3ccccc23)ccc1OCc1ccc(F)cc1 -1.33%
c1ccc(-c2nc(-c3cccc4ccccc34)c(Nc3ccc4ccccc4c3)o2)cc1 9.28%
Cc1ccc2nsnc2c1NS(=O)(=O)c1c(C)ccc2nsnc12 2.36%
CCCCC(=O)NC(c1ccccc1)c1ccc2cccnc2c1O (stereo not drawn) -13.8%
CCCCN1CCc2[nH]c(=S)[nH]c(=O)c2C1 8.3%

Potency, inconclusive:
CCN(CC)c1nc2c3c(nc4c(c3c1C#N)CC(=O)N4c1ccc(Cl)cc1)NC(C)=N2 14.1 µM [quencher, side channel, partial curve]
COc1cccc(Cn2c(Oc3ccccc3)nc3c2c(=O)n(C)c(=O)n3C)c1 39.8 µM [inhibitor, single point]
CCOC(=O)c1[nH]c2ccc(F)cc2c1NC(=O)c1cc(OC)c(OC)c(OC)c1 25.1 µM [quencher, side channel, single point]
c1ccc(-c2ccccc2OCCCN2CCCCCC2)cc1 3.55 µM [fluorescent, side channel, partial curve]
CCOc1ccccc1/C=N/n1c(C)nc2ccccc2c1=O 31.6 µM [inhibitor, single point]
CCCNC(=O)NC(=O)COC(=O)c1oc2ccc(OCC)cc2c1C 12.6 µM [fluorescent, side channel, partial curve]
Cc1ccc(-n2[nH]c(C)c(/C=N/NC(=O)c3ccc(O)cc3O)c2=O)cc1 11.2 µM [quencher, side channel, partial curve]
O=C(O)c1cc([N+](=O)[O-])cc2c1C=Cc1ccccc1O2 28.2 µM [quencher, side channel, single point]
O=c1c(-c2ccc(F)c(F)c2)nc2cncnc2n1-c1ccccc1 10 µM [quencher, side channel, partial curve]
COc1ccc(C)cc1NC(=O)C1CCN(S(=O)(=O)c2cccs2)CC1 25.1 µM [fluorescent, side channel, single point]
COc1ccc(NC(=O)c2oc3ccccc3c2NC(=O)c2ccc3c(c2)OCO3)cc1 14.1 µM [quencher, side channel, partial curve]
O=C(Nc1ccccc1)C(c1ccccc1)C1CCCC1 (stereo not drawn) 39.8 µM [quencher, side channel, single point]
O=C(Nc1ccc2c(c1)OCO2)O[C@@H]1C[C@H]2CCC(=O)N3CC[C@@H](C1)[C@@H]23 3.98 µM [quencher, side channel, single point]
O=C(C(c1ccccc1)c1ccccc1)N1CCN(CC(O)COc2ccccc2)CC1 (stereo not drawn) 3.16 µM [inhibitor, single point]
CCOC(=O)c1c(NC(=O)c2cccnc2)sc(C)c1C 7.94 µM [inhibitor, full curve]
Cc1ccc(S(=O)(=O)NC(=O)c2cc(C)n(-c3ccccc3)c2C)cc1 15.8 µM [inhibitor, single point]
COC(=O)c1ccc(C2SCC(=O)N2Cc2ccccc2)cc1 (stereo not drawn) 17.8 µM [inhibitor, partial curve]
O=C(COC(=O)CCc1c[nH]c2ccccc12)Nc1cc([N+](=O)[O-])ccc1Cl 35.5 µM [quencher, side channel, single point]
O=C(c1cnn2c(C(F)F)cc(-c3ccccc3)nc12)N1CCN(Cc2ccc3c(c2)OCO3)CC1 3.55 µM [fluorescent, side channel, full curve]
C=CCc1cc(OC)ccc1OCCN(C)Cc1ccccc1 6.31 µM [fluorescent, side channel, partial curve]
COc1ccc(OC)c2[nH]c(C(=O)N/N=C/c3ccccc3O)cc12 3.55 µM [quencher, side channel, partial curve]
N#C/C(=C(/O)c1ccc(Br)s1)c1nc2ccccc2[nH]1 10 µM [inhibitor, partial curve]
CC1=NN(c2nc(-c3ccc(C)cc3)cs2)C(=O)C1N=Nc1cccc(O)c1 (stereo not drawn) 6.31 µM [quencher, side channel, partial curve]
CCC(Sc1nc(-c2ccccc2)c(C#N)c(=O)[nH]1)C(=O)Nc1nnc(C)s1 (stereo not drawn) 35.5 µM [quencher, side channel, single point]
O=C(COc1cccc2ccccc12)N/N=C/c1ccc(Sc2nc3ccccc3s2)o1 20 µM [inhibitor, single point]
CCn1nc([N+](=O)[O-])c(C(C#N)c2nc3cc(C(F)(F)F)ccc3s2)c(Cl)c1=O (stereo not drawn) 25.1 µM [quencher, side channel, partial curve]
Cc1ccc(Sc2c([N+](=O)[O-])c(=O)n(C)c3ccccc23)cc1 39.8 µM [quencher, side channel, single point]
Cc1coc2c1C(=O)C(=O)c1c-2ccc2c1CCCC2(C)C 14.1 µM [quencher, side channel, partial curve] and 22.4 µM [quencher, side channel, partial curve] and 17.8 µM [quencher, side channel, partial curve]
O=C(CSc1ccc2nnc(-c3ccncc3)n2n1)Nc1nccs1 39.8 µM [fluorescent, single point]
O=C(CSc1nnc(SCc2ccc(Cl)cc2)s1)N/N=C/c1c[nH]c2ccccc12 5.62 µM [quencher, side channel, full curve]
COCc1cc(Sc2ccc(Br)cc2)nc(-c2ccccc2)n1 31.6 µM [fluorescent, side channel, single point]
Cn1c(/N=C/c2c(O)ccc3ccccc23)nc2ccccc21 35.5 µM [quencher, side channel, single point]
CC(C)NC(=O)CCCN1C(=O)c2ccccc2Sc2ncccc21 5.62 µM [inhibitor, full curve]
Clc1ccc(Nc2ccc(NCc3ccccc3)nn2)cc1 31.6 µM [quencher, side channel, single point]
O=C(Nc1cccc(F)c1)c1coc(=O)c(Br)c1 35.5 µM [inhibitor, single point]
C=CCn1c(-c2cccs2)nc2ccccc21 31.6 µM [inhibitor, single point]
COc1ccccc1NC(=O)c1nnn(CC(=O)Nc2cccc(SC)c2)c1N 2.82 µM [quencher, side channel, full curve, poor fit]
Cc1cc(Cl)ccc1Oc1nc(-c2ccc(F)cc2)ccc1C#N 8.91 µM [inhibitor, partial curve]
O=C(Oc1ccc2ccc(O)cc2c1)C1CCCCC1 14.1 µM [quencher, side channel, partial curve]
COc1ccc(-c2[nH]n(-c3ccc([N+](=O)[O-])cc3)c(=O)c2C=NCc2ccc(F)cc2)cc1 5.01 µM [quencher, side channel, partial curve]
O=C(Nc1ccc2c(c1)OCO2)C1CCN(S(=O)(=O)c2cccs2)CC1 20 µM [quencher, side channel, partial curve]
Cc1cc(NC(=O)Nc2cccc(Cl)c2)n(-c2ccccn2)n1 14.1 µM [quencher, side channel, partial curve]
O=C(Nc1cccc(C(F)(F)F)c1)n1cc(-c2ccccn2)c(N2CCOCC2)n1 12.6 µM [quencher, side channel, partial curve]
O=C(N/N=C/c1ccccn1)c1ccc(NC(=O)c2ccc(F)cc2)cc1 10 µM [quencher, side channel, full curve, poor fit]
COc1cccc(NC(=O)c2ccn(C)n2)c1 39.8 µM [inhibitor, single point]
Cn1c(O)c(N=NC(=O)c2ccccc2O)c2ccccc21 12.6 µM [quencher, side channel, single point]
O=c1[nH]n(-c2ccc(Cl)cc2)c(=O)c(Cl)c1Cl 39.8 µM [quencher, side channel, single point]
O=C(C1CCC(=O)N(C2CCCC2)C1)N1CCC(Oc2cccc(F)c2)CC1 (stereo not drawn) 39.8 µM [inhibitor, single point]
Cc1ccccc1CC(=O)Nc1ccc2c(c1)CCC2 12.6 µM [inhibitor, partial curve, poor fit]
